Results on one substance are retold here after PMC4251979.

By UniProt entry, the sequences of proteins in these tests, tags left out.
UniProt Q8IY92: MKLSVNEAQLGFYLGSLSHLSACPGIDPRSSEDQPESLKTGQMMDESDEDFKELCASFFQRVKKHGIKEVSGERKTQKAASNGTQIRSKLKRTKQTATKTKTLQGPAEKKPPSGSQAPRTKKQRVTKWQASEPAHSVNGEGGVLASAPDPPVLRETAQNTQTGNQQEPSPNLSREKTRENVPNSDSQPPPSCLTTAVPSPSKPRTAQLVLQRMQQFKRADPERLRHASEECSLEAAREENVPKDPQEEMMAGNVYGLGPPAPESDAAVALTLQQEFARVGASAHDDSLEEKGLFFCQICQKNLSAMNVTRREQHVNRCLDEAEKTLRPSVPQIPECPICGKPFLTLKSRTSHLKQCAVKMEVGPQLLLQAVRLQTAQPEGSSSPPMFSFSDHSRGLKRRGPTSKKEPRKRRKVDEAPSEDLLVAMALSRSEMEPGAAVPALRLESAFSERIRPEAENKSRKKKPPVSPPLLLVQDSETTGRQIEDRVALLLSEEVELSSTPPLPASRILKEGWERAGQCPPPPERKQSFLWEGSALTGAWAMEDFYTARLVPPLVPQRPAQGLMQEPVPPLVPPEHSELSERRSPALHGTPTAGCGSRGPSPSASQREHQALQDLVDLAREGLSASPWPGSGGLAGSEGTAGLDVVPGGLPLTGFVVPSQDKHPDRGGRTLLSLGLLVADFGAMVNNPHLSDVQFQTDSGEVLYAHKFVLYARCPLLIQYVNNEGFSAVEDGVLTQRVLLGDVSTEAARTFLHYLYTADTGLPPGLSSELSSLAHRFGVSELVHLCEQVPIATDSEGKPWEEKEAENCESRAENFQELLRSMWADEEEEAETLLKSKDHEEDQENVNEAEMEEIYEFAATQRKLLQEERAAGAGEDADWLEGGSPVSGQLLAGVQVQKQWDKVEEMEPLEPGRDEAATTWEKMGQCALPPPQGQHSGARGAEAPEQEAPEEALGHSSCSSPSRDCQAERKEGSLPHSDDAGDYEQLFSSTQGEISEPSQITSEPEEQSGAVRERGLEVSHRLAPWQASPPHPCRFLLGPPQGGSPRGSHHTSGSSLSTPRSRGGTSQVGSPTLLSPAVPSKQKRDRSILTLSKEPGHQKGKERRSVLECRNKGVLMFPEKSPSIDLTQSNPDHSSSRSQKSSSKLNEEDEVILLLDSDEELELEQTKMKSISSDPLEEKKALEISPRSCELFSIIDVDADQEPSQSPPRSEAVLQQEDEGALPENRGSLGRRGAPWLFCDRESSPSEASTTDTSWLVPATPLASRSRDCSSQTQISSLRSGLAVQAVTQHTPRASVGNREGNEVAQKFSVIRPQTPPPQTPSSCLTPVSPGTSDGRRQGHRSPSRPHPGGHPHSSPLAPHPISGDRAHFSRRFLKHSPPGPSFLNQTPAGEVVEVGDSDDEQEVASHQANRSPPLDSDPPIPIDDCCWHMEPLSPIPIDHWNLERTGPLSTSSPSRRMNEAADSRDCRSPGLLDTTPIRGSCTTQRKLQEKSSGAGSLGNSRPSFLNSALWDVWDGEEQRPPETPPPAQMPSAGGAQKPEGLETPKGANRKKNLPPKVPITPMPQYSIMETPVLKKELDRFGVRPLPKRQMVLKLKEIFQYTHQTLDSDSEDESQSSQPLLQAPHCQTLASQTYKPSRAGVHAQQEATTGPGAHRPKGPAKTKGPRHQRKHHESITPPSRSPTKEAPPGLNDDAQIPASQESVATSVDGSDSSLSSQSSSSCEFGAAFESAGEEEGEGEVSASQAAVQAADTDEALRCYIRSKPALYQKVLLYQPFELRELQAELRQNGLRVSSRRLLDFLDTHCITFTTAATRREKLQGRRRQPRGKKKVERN

Where a chain is given by its changes, count along the chain named. Results are given in words; binding and its absence hold for the method and conditions named. In cells and extracts the contact can be indirect. Some entries that bind do so weakly or less than the wild type. Tags and fused reporters may be left off the sequences shown.

What all share (assay): co-IP; HEK293 cells transiently transfected with FLAG-MUS81 (wild type or mutants); extracts immunoprecipitated with anti-FLAG (FLAG-M2 agarose beads), western blotting
For orientation: Immunoblotting shows a protein as a band on a membrane.

For experiment [1], the target named is T1, full-length FLAG-MUS81 L47K (human) (UniProt Q96NY9).
T1 sequence: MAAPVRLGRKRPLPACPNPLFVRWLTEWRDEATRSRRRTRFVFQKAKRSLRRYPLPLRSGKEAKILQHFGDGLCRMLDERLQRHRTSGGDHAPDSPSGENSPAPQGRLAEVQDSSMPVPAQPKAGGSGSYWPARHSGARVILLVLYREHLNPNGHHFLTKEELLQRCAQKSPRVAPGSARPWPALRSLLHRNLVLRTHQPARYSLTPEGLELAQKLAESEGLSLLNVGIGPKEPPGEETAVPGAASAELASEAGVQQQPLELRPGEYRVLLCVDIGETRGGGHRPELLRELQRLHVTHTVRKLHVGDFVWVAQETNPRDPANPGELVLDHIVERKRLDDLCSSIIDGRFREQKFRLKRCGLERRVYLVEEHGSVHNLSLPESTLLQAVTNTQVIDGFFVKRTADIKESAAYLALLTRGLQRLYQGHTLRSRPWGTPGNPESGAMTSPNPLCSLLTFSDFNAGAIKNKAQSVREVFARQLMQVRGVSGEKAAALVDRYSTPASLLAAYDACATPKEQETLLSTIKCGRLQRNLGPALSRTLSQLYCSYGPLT

Experiment [2] has as its target T2, FLAG-MUS81 wild-type (human) (UniProt Q96NY9).
T2 sequence: T1 sequence with K47L

Experiment [3] addresses T3, full-length FLAG-MUS81 L25K (human) (UniProt Q96NY9).
T3 sequence: T1 sequence with L25K, K47L

For experiment [4], the target named is T4, full-length FLAG-MUS81 L47P (human) (UniProt Q96NY9).
T4 sequence: T1 sequence with K47P

Consider “endogenous SLX4 (human cells) (from UniProt Q8IY92 1-1834)”, for which the binding result in experiment [1] was “no binding”; in experiment [2], “binds”; in experiment [3] it was “no binding”; in experiment [4], “no binding”.
